# Measured values from publication PMC4336329 (PLoS ONE, 2015).
# Among all 310,000 compounds or so, about 14,000 (4.5%) showed an effect of 50% or more. Effects have a minus sign here. This is one part of the list. Where a SMILES comes first, the peptide text is derived from it. The star is where a group is joined. Boc = CC(C)(C)OC(=O)*
# Target: human ether-à-go-go-related gene (hERG) potassium channel (human, UniProt Q12809)
# Assay: primary screen, population patch clamp on CHO cells stably expressing hERG
# 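Also: peak tail current of the secondary pulse compared with the same well before compound.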
# Chain of human ether-à-go-go-related gene (hERG) potassium channel (Q12809 whole entry, looked up): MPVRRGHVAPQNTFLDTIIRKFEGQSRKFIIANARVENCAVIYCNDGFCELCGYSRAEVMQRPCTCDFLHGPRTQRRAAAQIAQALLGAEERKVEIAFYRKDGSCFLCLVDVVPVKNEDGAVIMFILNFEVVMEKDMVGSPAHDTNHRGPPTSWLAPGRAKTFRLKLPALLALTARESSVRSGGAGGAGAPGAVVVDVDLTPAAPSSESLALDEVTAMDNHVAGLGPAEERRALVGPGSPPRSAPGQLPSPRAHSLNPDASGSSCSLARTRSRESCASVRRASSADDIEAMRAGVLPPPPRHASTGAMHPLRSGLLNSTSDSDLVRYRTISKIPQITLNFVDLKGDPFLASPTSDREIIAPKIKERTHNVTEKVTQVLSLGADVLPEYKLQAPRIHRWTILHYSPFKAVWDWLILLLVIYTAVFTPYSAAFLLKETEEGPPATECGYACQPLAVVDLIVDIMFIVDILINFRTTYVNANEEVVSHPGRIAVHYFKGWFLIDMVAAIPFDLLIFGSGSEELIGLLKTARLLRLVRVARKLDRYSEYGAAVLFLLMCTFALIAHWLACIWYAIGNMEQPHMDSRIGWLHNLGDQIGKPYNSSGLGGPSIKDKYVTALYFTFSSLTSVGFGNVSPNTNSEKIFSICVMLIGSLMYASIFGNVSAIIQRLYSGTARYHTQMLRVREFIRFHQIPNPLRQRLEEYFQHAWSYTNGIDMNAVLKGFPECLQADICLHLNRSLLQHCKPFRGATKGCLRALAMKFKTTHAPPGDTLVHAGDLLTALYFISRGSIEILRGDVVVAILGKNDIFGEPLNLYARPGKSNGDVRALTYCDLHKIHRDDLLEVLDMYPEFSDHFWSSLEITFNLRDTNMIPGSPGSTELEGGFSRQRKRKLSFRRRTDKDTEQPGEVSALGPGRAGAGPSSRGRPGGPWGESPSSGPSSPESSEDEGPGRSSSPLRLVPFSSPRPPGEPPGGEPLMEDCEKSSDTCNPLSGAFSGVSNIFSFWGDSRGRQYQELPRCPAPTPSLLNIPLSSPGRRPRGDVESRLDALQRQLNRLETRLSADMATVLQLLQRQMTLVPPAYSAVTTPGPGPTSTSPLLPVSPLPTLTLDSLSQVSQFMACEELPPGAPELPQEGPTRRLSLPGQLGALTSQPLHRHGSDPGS
row,Structure (SMILES),"hERG current change (%, negative = inhibition) at 10uM"
1,Brc1ccsc1/C=N/Nc1ccccc1,20.2%
2,CC(=O)N1c2c(cc(Br)cc2S(=O)(=O)Nc2c(C)n(C)n(-c3ccccc3)c2=O)CC1C (stereo not shown),5.64%
3,Cc1ccn(CC(=O)N2CCCC(Nc3ccc(F)c(F)c3)C2)n1 (stereo not shown),-0.709%
4,O=C(NCCCN1CCOCC1)C1CCN(S(=O)(=O)c2cccc(Cl)c2Cl)CC1,-17.1%
5,Cc1ccccc1S(=O)(=O)Cc1ccc(C(=O)NCCCN2CCCC2)o1,-6.93%
6,CCOC(=O)C(Cc1ccc(O)cc1)NC(=O)CNC(=O)C(CC(C)C)NC(=O)OC(C)(C)C (stereo not drawn) (Boc-Leu-Gly-Tyr-OEt; configuration not given here),3%
7,CCSc1ccccc1C(=O)NCCCn1ccnc1,10.2%
8,CCCN1CCC(NC(=O)C2CCN(C(C)=O)CC2)CC1,12.4%
9,CC1CCCC(C)N1C(=O)CNCc1ccc2c(c1)OCO2.O=C(O)C(=O)O (stereo not shown),9.88%
10,CC(C)(C)c1ccc(/C=N/N2C(=O)CSC2=S)cc1,16.6%
11,N#Cc1c(SCC(=O)N2CCCCC2)nsc1SCC(=O)N1CCCCC1,16.5%
12,CC(C)NC(=O)C(=O)NCC(c1ccc2c(c1)OCO2)N1CCOCC1 (stereo not shown),11.8%
13,Cc1cc(-c2nnc3n2CCCCC3)c(C)n1-c1ccccc1,-14.5%
14,COc1ccc(S(=O)(=O)N2CCCCCC2)cc1NC(=O)Cc1cc(OC)c(OC)c(OC)c1,3.28%
15,COC(=O)C1=C(C)NC(=O)/C1=C\c1cc(C)n(-c2ccccc2F)c1C,12.2%
16,Cc1ccc(NC2=NCC(=O)N2c2ccc3c(c2)OCCO3)c(C)c1,6.92%
17,CCCN(c1ccc(C(C)C)cc1)S(=O)(=O)c1c(C)noc1C,23.4%
18,COc1ccc(CCn2c(O)c(C=NCCCn3ccnc3)c(=O)[nH]c2=O)cc1OC,12.8%
19,O=C(NCCCN1CCOCC1)c1cc(-c2ccc(F)cc2)no1,-13.2%
20,O=C1N(c2cccc(Cl)c2)C(c2ccc(Cl)cc2)N2CCCN12 (stereo not shown),-15.8%
21,CSc1ccccc1NC(=O)c1ccoc1C,-16.9%
22,COc1ccc(C2C(C#N)=C(N)OC(C(C)(C)C)=C2C#N)cc1OC (stereo not shown),-39.8%

row,Structure (SMILES),"hERG current change (%, negative = inhibition) at 10uM"
1,S=P(Nn1cnnc1)(c1ccccc1)c1ccccc1,12.9%
2,C/C(=C\C(=O)c1ccc(C)o1)Nc1ccc2c(c1)OCO2,-0.0129%
3,CCOC(=O)Cc1csc(NC(=O)Cn2cnc3c2c(=O)n(C)c(=O)n3C)n1,2.68%
4,CCNC(=S)N1CC(C)OC(C)C1 (stereo not shown),8.95%
5,Cc1ccc(-c2csc(NC(=O)C3CCN(S(=O)(=O)c4cccs4)CC3)n2)cc1,13.4%
6,COc1ccc2cc1Oc1ccc(cc1)C[C@H]1c3cc(c(OC)cc3CCN1C)Oc1c(O)c(OC)cc3c1[C@H](C2)N(C)CC3,-47.7%
7,Cc1cccc(C)c1NC(=O)NN(C(=O)c1ccccc1)C(C)(C)C,-9.36%
8,CO/N=C/C=C1/N(C)c2ccccc2C1(C)C,19.8%
9,CC(C)C(=O)Nc1nnc(COc2ccc(Cl)cc2)s1,8.84%
10,CC(C)=CCc1c(O)cc(O)c2c1OC(c1ccc(O)cc1)CC2=O (stereo not shown),5.67%
11,NC(=O)CCc1c[nH]c2ccccc12,11.4%
12,O=C(Nc1ccc(S(=O)(=O)Nc2ncccn2)cc1)c1cnc(Cl)c(Cl)c1,19.2%
13,NC(=O)NC(CC(=O)NNC(=O)c1ccccn1)c1ccccc1Cl (stereo not shown),3.73%
14,O=C(CCSCc1ccccc1Cl)NCc1ccco1,15.8%
15,O=C(CCNC(=O)Cn1ccc2ccccc2c1=O)NCCC1=CCCCC1,-12.4%
16,CN(C)c1ccc(C(CNC(=O)c2ccccc2Br)c2c[nH]c3ccccc23)cc1 (stereo not shown),-4.71%
17,CCc1ccc2nc(N(CCCN(C)C)C(=O)c3ccc(S(=O)(=O)N(C)C4CCCCC4)cc3)sc2c1.Cl,8.35%
18,NCCCC[C@@H]1NC(=O)c2cc([N+](=O)[O-])cc(F)c2NCCCC[C@@H](C(N)=O)NC(=O)[C@H](CCC(N)=O)NC1=O,-1.25%
19,CN1CCN(S(=O)(=O)c2ccc(N3CCc4ccccc4C3)nc2)CC1,13.8%
20,COCCCNc1nc2c(-c3cccc(C(F)(F)F)c3)nnn2c2ccccc12,-1.31%
21,O=c1/c(=C/c2ccc(O)cc2)sc2nc3cc(Br)cnc3n12,13.7%
22,CCN1C(=O)[C@H]2[C@@H](c3ccccc3)N3C(=O)N(c4cccc(F)c4)C(=O)[C@@]3(CC(C)C)[C@H]2C1=O,13.5%

row,Structure (SMILES),"hERG current change (%, negative = inhibition) at 10uM"
1,Cc1ccc(Nc2nc3c(c(=O)[nH]2)CCCC3)cc1,-2.8%
2,O=C1ON=C(c2ccccc2)/C1=C/c1ccccc1,11.4%
3,O=C(COC(=O)c1ccc(N2CCCC2=O)cc1)NCc1ccco1,13.6%
4,CC(=O)Nc1ccc(S(=O)(=O)n2cnc3cc(C)c(C)cc32)cc1,1.16%
5,Cc1nn(Cc2ccc([N+](=O)[O-])cc2)c(=O)n1N(C)c1ncc(C(F)(F)F)cc1Cl,-3.46%
6,CCOC(=O)NC1c2ccccc2Oc2ccccc21,-8.04%
7,Nc1nonc1-n1nnc(C(=O)N/N=C/c2ccccc2Br)c1CN1CCCC1,15.3%
8,CCCNC(=S)N1CCC(NC(=O)c2ccc(OC)cc2)CC1,-5.18%
9,Cc1ccc(N2C(=O)NC(=O)/C(=C\c3cc(C)n(-c4ccc(C(=O)O)cc4)c3C)C2=O)cc1,24.6%
10,COc1ccc(C(CNC(=O)c2cccc(NC(=O)c3cccs3)c2)N2CCCC2)cc1 (stereo not shown),-58.8%
11,CCCCNC(=O)CCNS(=O)(=O)c1ccc(C)cc1,-2.03%
12,CCOC(=O)c1c(C)[nH]c(C)c1C(=O)COC(=O)c1cc2ccccc2cc1O,11%
13,CCC(C)C(NC(=O)OC(C)(C)C)C(=O)NC(C(=O)N1CCCC1C(N)=O)C(C)CC (stereo not drawn) (Boc-Ile-Ile-Pro-NH2; configuration not given here),9.19%
14,CCOC(=O)Cn1c(=O)oc2cc(S(=O)(=O)Nc3cccc(C)c3)ccc21,-22.5%
15,COc1cccc(N(CC(=O)NC2CCCC2)C(=O)Cn2nnc(-c3ccc(C)o3)n2)c1,-0.0528%
16,CC(C)(C)c1ccc(OCC(=O)N(Cc2cccs2)C2CCS(=O)(=O)C2)cc1 (stereo not shown),-54.2%
17,Cc1ccc(C(=O)NCCn2cc(SCC(=O)Nc3nnc(C)s3)c3ccccc32)cc1,-3.05%
18,CCc1c(C)nc(N)n2c(SCC(=O)N3CCCc4ccccc43)nnc12,-5.8%
19,CCOc1ccc(CNc2nc3ccccc3n2C)cc1,-31.4%
20,COC(=O)c1cccnc1Oc1ccccc1,4.12%
21,CCC(=O)N(C(=O)CC)N1CCN(c2ccncc2S(=O)(=O)N2CCCCC2)CC1,-52.5%
22,CCN1/C(=C\C=C\C2=[N+](CC)c3ccccc3C2(C)C)C(C)(C)c2ccccc21.[O-][Cl+3]([O-])([O-])[O-],-96.7%

row,Structure (SMILES),"hERG current change (%, negative = inhibition) at 10uM"
1,CS(=O)(=O)N(CC(=O)Nc1c(F)cccc1F)Cc1ccccc1,10.3%
2,CCOCCCn1c(=O)c(NC(=O)c2ccc(OCC)cc2)c2n(c1=S)CCCCC2,-27.8%
3,CC(=O)Nc1cccc(NC(=O)CSc2nc3c(c(=O)n(C)c(=O)n3C)n2C)c1,-41.9%
4,CCOc1cc(S(=O)(=O)N2CCCCC2)ccc1Cl,-21.3%
5,COc1ccc(S(=O)(=O)N(C)c2ccc(C(=O)N3CCCC3)cc2)cc1OC,12.8%
6,Cc1cc(C(=O)N/N=C/c2cccc([N+](=O)[O-])c2)c(C)o1,9.13%
7,O=C(COC(=O)/C=C/c1cccc(Cl)c1)NCCC1=CCCCC1,-11.9%
8,CCOC(=O)CCCCNCc1ccccc1.Cl,-5.76%
9,CC1(C)CC(=O)c2c(Cc3ccccc3)noc2C1,12.1%
10,CCOC(=O)C1=C(C)C(c2cccc(Oc3ccccc3)c2)NC(=S)N1 (stereo not shown),0.199%
11,CCOC(=O)c1cc2sccc2n1CC(=O)N1c2ccccc2CC1C (stereo not shown),-0.785%
12,Nc1nonc1-c1nc2ccccc2n1Cc1ccc(Cl)cc1,0.205%
13,O=C(Nc1ccc(F)cc1F)N1CCCN(CCOc2ccccc2)CC1,-45.2%
14,CCOC(=O)CC1Sc2ccccc2NC1=S (stereo not shown),-0.638%
15,Cc1c(Cl)ccc(S(=O)(=O)Nc2cccnc2)c1Cl,13.6%
16,COC(=O)CCc1nc2cc(Cl)ccc2n(Cc2ccccc2)c1=O,-23.1%
17,CCOC(=O)N1CCN(C(=O)C2COc3ccccc3O2)CC1 (stereo not shown),-2.28%
18,Cc1ccc(C(=O)c2ccccc2C(=O)OCC(=O)NCC2CCCO2)cc1 (stereo not shown),18.6%
19,O=C(c1ccc(C(F)(F)F)cc1)N1CCC(=O)N(C(CO)Cc2ccccc2)CC1 (stereo not shown),-4.21%
